Common to all, as to details: 20 mM HEPES pH 7.9, 100 mM NaCl, 1 mM DTT, 0.2 mg/mL BSA, 0.02% Triton X-100, 2% milk, 0.4 mg/mL salmon testes DNA; 1 h; temperature not stated; high values mean tight binding; double strand, one strand shown; sequences stand for … in GCCTAGCAC…GTGCTAGGTCTTGATTCGCTTGACGCTGCTG
The target of experiment [1] is PU.1 (IVT) (UniProt P17947). Description: protein-binding microarray (PBM).
For experiment [2], the target named is PU.1 (endogenous, THP-1 nuclear extract) (UniProt P17947). Description: nuclear extract protein-binding microarray (nextPBM).
In experiment [3] the target is T1, FLI1 (endogenous, THP-1 nuclear extract) (UniProt Q01543).
T1 sequence: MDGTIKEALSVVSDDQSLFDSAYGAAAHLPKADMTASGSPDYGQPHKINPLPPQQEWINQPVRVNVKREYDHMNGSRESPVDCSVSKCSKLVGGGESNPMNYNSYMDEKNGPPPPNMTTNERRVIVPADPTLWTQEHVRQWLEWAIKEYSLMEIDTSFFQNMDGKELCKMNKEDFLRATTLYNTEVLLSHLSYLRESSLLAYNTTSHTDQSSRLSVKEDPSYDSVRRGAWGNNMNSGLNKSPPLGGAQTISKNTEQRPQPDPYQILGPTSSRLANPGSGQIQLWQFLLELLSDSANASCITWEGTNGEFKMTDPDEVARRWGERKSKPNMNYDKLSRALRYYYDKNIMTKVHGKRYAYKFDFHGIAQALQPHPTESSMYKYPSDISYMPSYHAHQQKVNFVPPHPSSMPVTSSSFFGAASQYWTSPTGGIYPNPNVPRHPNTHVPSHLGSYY
The experiment is described as above.

The other results are listed elsewhere or left out. For part of these data: At the low end of the ranking the order means little. For part of these data: Measured with an extract: partners may take part in the binding.

Consider CCTGGGAGGAAGTCAGTGCC, for which the binding signal in experiment [1] was found to be 3.14 z-score; in experiment [2], 2.5 z-score; in experiment [3] it was 2.38 z-score.

With ACAAAAAGGAACTGGGCCCC, the binding signal in experiment [1] was determined as 1.42 z-score; in experiment [2] it was 1.96 z-score; in experiment [3], 0.58 z-score.

On to AAGGAGAGGAAGTGACCAGC, for which the binding signal in experiment [1] is 4.3 z-score; in experiment [2], 4.17 z-score; in experiment [3], 2.68 z-score.

Regarding GAAAGGAGGAAGTACTGTGG, the binding signal in experiment [1] came out at 6.78 z-score; in experiment [2], 6.71 z-score; in experiment [3] it was 3.42 z-score.

Consider CAAAAAGGGAAGTGAATGCT, for which the binding signal in experiment [1] stood at 6.92 z-score; in experiment [2], 6.73 z-score; in experiment [3], 3.03 z-score.

For TGGAAGAGGAAGTGGCTAAC, the figures for the binding signal in experiment [1], in experiment [2] and in experiment [3] were 5.89 z-score, 6.81 z-score and 3.51 z-score, respectively.

Turning to CAAATGAGGAAGTAGAGAAA, the binding signal in experiment [1] stood at 7.99 z-score; in experiment [2], 7.3 z-score; in experiment [3], 3.77 z-score.

GGAATTAGGAAGTGGTTCTT: the binding signal in experiment [1] came out at 4.29 z-score; in experiment [2], 4.4 z-score; in experiment [3], 2.1 z-score.

Consider AAAAAGAAGAAGTGGGGCTT, for which the figures for the binding signal in experiment [1], in experiment [2] and in experiment [3] were 4.26 z-score, 4.54 z-score and 0.99 z-score, respectively.

Turning to TAAAGGAGGAACTACTGTGA, the figures for the binding signal in experiment [1], in experiment [2] and in experiment [3] were 4.75 z-score, 4.46 z-score and 1.16 z-score, respectively.

Regarding AATAAGAGGAAGTCCTCTGT, the binding signal in experiment [1] was 6.25 z-score; in experiment [2] it was 6.68 z-score; in experiment [3], 3.13 z-score.

For the sequence CCTTTGGGGAAGTGGTTAAG, the binding signal in experiment [1] turned out to be 4.15 z-score; in experiment [2] it was 4.61 z-score; in experiment [3] it was 1.85 z-score.

AAAAGAGGGAAGTGACATTC: the binding signal in experiment [1] was 5.89 z-score; in experiment [2] it was 6.21 z-score; in experiment [3] it was 2.08 z-score.

Take CCTTTGGGGAAGTGCAAGAT: the binding signal turned out to be 3.85 z-score in experiment [1], 4.15 z-score in experiment [2] and 1.74 z-score in experiment [3].

As for GAAAAGAGGAACTGGACCCT, the binding signal in experiment [1] was determined as 7.24 z-score; in experiment [2], 6.89 z-score; in experiment [3] it was 2.94 z-score.

Take TCACAGAGGAAGTGATAGTA: the binding signal in experiment [1] was determined as 3.5 z-score; in experiment [2] it was 3.76 z-score; in experiment [3], 2.61 z-score.

On to AAAAAAAGGAAGTGGACAAA, for which the binding signal in experiment [1] was found to be 6.62 z-score; in experiment [2], 6.29 z-score; in experiment [3], 3.04 z-score.

Take ATATAGAGGAACTGAAATTC: the binding signal in experiment [1] was 3.54 z-score; in experiment [2] it was 3.21 z-score; in experiment [3], 1.27 z-score.

On to TTTTTGAGGAAGTGAATTAT, for which the binding signal in experiment [1] worked out at 7.02 z-score; in experiment [2] it was 6.78 z-score; in experiment [3] it was 3.19 z-score.

GAGAAGAGGAAATGAGTGTG: the binding signal amounted to 2.61 z-score in experiment [1], 2.77 z-score in experiment [2] and 2.7 z-score in experiment [3].

Regarding TCAAAGAGGAAGTGCTCCTG, the binding signal in experiment [1] came out at 6.64 z-score; in experiment [2], 6.8 z-score; in experiment [3], 3.76 z-score.

Values taken from publication PMC6451091.
